{"source": "patent US9284283B2", "about": "“Macrocyclic compounds for modulating IL-17” (ENSEMBLE THERAPEUTICS CORPORATION, priority 2012, dated 2016)", "key": {"[1]": {"molecular_target": "T1, biotinylated human IL-17 (binding to IL17R/Fc) (Homo sapiens, UniProt Q16552)", "T1 construct": "purchased R&D Systems 317-ILB (IL-17, biotinylated); 177-IR (IL17R/Fc)", "T1 sequence (Q16552 20-155 limits assumed)": "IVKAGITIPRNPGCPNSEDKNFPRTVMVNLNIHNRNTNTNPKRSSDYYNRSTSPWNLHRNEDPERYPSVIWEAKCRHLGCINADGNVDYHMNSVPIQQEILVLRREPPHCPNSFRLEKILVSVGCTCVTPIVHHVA", "assay": "IL-17 competition ELISA II (captured IL17R/Fc, biotinylated IL-17)", "procedure": "In this version, a high binding 96-well plate (Costar #9018) was coated with 20 nM of goat anti-human IgG (KPL 01-10-02) in PBS, 100 μL/well, for 30 min at 37° C. followed by 5 min at 4° C. The plate was then washed in PBST (PBS/0.05% Tween-20) on a plate washer, (BioTek ELx450) then blocked with protein-free blocking buffer (Thermo Scientific #37573) in 250 μL/well for 30 min on a shaker at room temperature, and then washed again. IL17R/Fc (R&D Systems #177-IR; 10 nM in PBST, 100 μL/well) was then added to all wells. The plate was then incubated for 30 minutes at room temperature on the shaker.\nWhile the receptor capture step was underway, compound dilutions were prepared in PBST to a concentration of 1 μM in 1.5 mL tubes. After the receptor capture step, the plate was washed and 50 μL PBST was added to the wells in row B down to row H. Then, 62.5 μL of the 1 μM compound dilutions were added to the wells of row A. From row A, 12.5 μL of the compound solution was removed and added to row B with mixing and this process of 5-fold dilutions was continued, by row, to row G. One of the wells in row A received only PBST (62.5 μL) and this dilution series served as the no competitor control. Then, going up from row G to row A, 50 μL of b-IL-17 (biotinylated human IL-17, R&D Systems #317-ILB; 20 nM) was added to all wells. Row H received 50 μL of PBST and served as the blank row, i.e., no compound and no b-IL-17. The plate was then incubated for 30 minutes at room temperature on the shaker.\nAfter the wash, 100 μL Streptavidin-Horseradish Peroxidase (SA-HRP) (KPL #14-30-00) at 25 ng/mL in PBST was added to each well in the plate and the plate incubated for 30 minutes at room temperature followed by wash and 100 μL SureBlue™ TMB (KPL #52-00-03). After sufficient color development (approx 3-6 minutes), the reaction was fixed by the addition of 100 μL/well 0.5 N HCl and absorbance was measured at 450 nm on a BioTek Synergy 2 plate reader. The absorbances of ‘no competitor’ control and blank control should not exceed 1.5 A.U. and 0.06 A.U., respectively.\n(§1) Data was processed using BioAssay Enterprise v10.1.4 (CambridgeSoft) software. Linear OD λ450 were plotted against log concentration (x) and fitted to a 4-parameter logistic equation. IC50 was calculated using positive ‘no competitor’ control data as an upper limit and blank control as a lower limit in each assay."}, "[2]": {"molecular_target": "T2, recombinant human IL17a (binding to its receptor IL17R) (Homo sapiens, UniProt Q16552)", "T2 construct": "purchased R&D Systems 317-ILB (IL17a); 177-IR (IL17R/Fc)", "T2 sequence (Q16552 20-155 limits assumed)": "T1 sequence (Q16552 20-155 limits assumed)", "assay": "IL-17 competition ELISA I (IL17a coated, IL17R/Fc binding)", "procedure": "ELISA I: The ability of the compounds to block binding of IL17a to its receptor, IL17R, was analyzed in a competition ELISA format. High binding 96-well plates (Costar #9018) were coated with 20 nM of recombinant human IL17a (R&D Systems #317-ILB) in PBS (0.64 μg/mL), 100 μL/well, for 30 min at 37′C followed by 5 min at 4′C. Plates were then washed in PBST (PBS/0.05% Tween-20) on a plate washer, (Biotech EL-450) blocked with protein-free blocking buffer (Thermo Scientific #37573) in 250 μL/well for 30 min on shaker at room temperature, and then washed again. Compound dilutions prepared in PBST were added into the wells in duplicates followed by the addition of IL17R/Fc (R&D Systems #177-IR) at a final concentration of 12 nM. Plates were then incubated for 30 min at room temperature on the shaker. Wells with no compound served as a positive “no competitor” control, while wells with no IL17R/Fc and no compound served as a blank negative control. After an additional PBST wash, 50 ng/mL HRP-conjugated goat anti-human Fc IgG (KPL #04-10-20) was added to the plate for 30 min at room temperature, followed by PBST wash and addition of SureBlue™ TMB (KPL #52-00-03). After the sufficient color development, the reaction was fixed by the addition of 100 μL/well 0.5 N HCl and absorbance was measured at 450 nm on Biotek plate reader.\nas §1, with “Data were” for “Data was”"}, "IL17A": {"molecular_target": "T3, IL17A (Homo sapiens, UniProt Q16552)", "T3 sequence (Q16552 24-155)": "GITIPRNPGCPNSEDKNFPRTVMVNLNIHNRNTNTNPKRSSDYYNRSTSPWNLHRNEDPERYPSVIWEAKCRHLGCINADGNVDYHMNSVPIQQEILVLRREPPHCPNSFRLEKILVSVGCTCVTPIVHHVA", "assay": "Surface Plasmon Resonance (SPR) analysis of compound interactions with IL17A", "conditions": "SPR binding to IL17A", "procedure": "SPR analysis was carried out with a GE Healthcare (Piscataway, N.J.) Biacore X100 system. Typically, the chip (NTA Biacore Biosensor chip; GE Healthcare BR-1000-34) was first conditioned by injection of 0.35 M EDTA, which also served to remove any immobilized proteins from previous runs. Before immobilization of the recombinant 6-His-tagged IL17, the chip was washed with 0.5 mM nickel chloride in NTA buffer (10 mM HEPES buffer, 0.15 M sodium chloride, 10 μM ethylene diamine tetraacetic acid, 0.005% v/v surfactant P20 (GE Healthcare BR-1000-54)) to form a nickel chelate on the chip. IL17 protein was immobilized onto a NTA chip through its 6-His tag. IL17A was typically injected at 0.25 μM for 60-120 seconds, followed by a stabilization step washing with NTA+0.5% DMSO for 120 seconds or longer.\nFive 2-fold or 3-fold serial dilutions of test compound were injected serially onto the chip. All steps were conducted using NTA buffer containing 0.5% v/v dimethylsulfoxide (DMSO). Compounds were diluted from stock solutions of 10 mM concentration in 100% DMSO with NTA buffer to obtain 50 μM solutions in NTA+0.5% DMSO. Subsequent 2× or 3× dilutions were made in NTA+0.5% DMSO. Compound was generally injected for 180 seconds followed by washing the chip in buffer alone for 120 seconds. The rate of refractive index change (RU units/time) and the maximum extend of RU change was measured during the “on” phase of analyte injection, followed by measuring the rate during the “off” phase.\nKinetic parameter fits were conducted using the Biacore SPR Evaluation Program (GE Healthcare) for 1:1 molecular binding fits, after subtracting the baseline average of 2 or more runs in which no analyte was injected. This program then reports the best fit average for the “on” rate (Ka), the “off” rate (Kd) and the dissociation constant (KD) (Chaiken, I et al., Anal Biochem 201, 197-210 (1992)). A separate program in the Biacore SPR Evaluation Program then calculates the best fit for Kd based upon the extent of binding alone (RU units bound) at each concentration of analyte and reports the best fit Kd by best fit to a Lineweaver-Burke plot. Typically, the Kd value calculated through both means agreed within a factor of three.\nThe presence and activity of IL17 on the NTA chip was routinely confirmed three ways: • 1) An increase in response units (RU) upon immobilization confirms that the IL17 was immobilized on the chip; • 2) Anti-IL17 was also injected on the chip to confirm the presence of IL17; and • 3) IL17R was injected onto the chip to confirm that the immobilized IL17 retained its binding activity for its receptor. Negative controls to access specificity for compound binding were conducted by immobilizing unrelated, but his-tagged, proteins (such as cyclophilin D) and conducting the same analysis as done with IL17A."}}, "note": "At least one structure is not confirmed: it was looked up by name or label, or the drawing left a doubt.", "data": [{"smiles": "O=C1CNC(=O)[C@@H](Cc2ccc(NC(=O)[C@@H](NC(=O)Cc3ccc(F)cc3)C3CCCCC3)cc2)NC(=O)CC2(CCCC2)CC(=O)NCCCCCN1", "note": "[Compound 380]", "values": [{"measurement": "IC50", "setting": "[1]", "value": "< 0.1", "unit": "µM"}, {"measurement": "IC50", "setting": "[2]", "value": "< 0.1", "unit": "µM"}]}, {"smiles": "Cc1ccccc1C[C@H](NC(=O)C1(c2ccc(F)cc2)CC1)C(=O)Nc1ccc(C[C@H]2NC(=O)CC3(CCCC3)CC(=O)N(C)CCCCCNC(=O)[C@@H](C)NC2=O)cc1", "note": "[Compound 430]", "values": [{"measurement": "IC50", "setting": "[1]", "value": "< 0.1", "unit": "µM"}]}, {"smiles": "O=C1CNC(=O)[C@@H](Cc2ccc(NC(=O)[C@H](Cc3ccccc3Cl)NC(=O)c3cccc(F)c3)cc2)NC(=O)CC2(CCCC2)CC(=O)NCCCCCN1", "note": "[Compound 199]", "values": [{"measurement": "Kd", "setting": "IL17A", "value": "< 0.1", "unit": "µM"}, {"measurement": "IC50", "setting": "[2]", "value": "< 0.1", "unit": "µM"}]}, {"smiles": "O=C1CNC(=O)[C@@H](Cc2ccc(NC(=O)[C@H](Cc3ccccc3Cl)NC(=O)Cc3cccnc3)cc2)NC(=O)CC2(CCCC2)CC(=O)NCCCCCN1", "note": "[Compound 198]", "values": [{"measurement": "Kd", "setting": "IL17A", "value": "< 0.1", "unit": "µM"}, {"measurement": "IC50", "setting": "[2]", "value": "< 0.1", "unit": "µM"}]}, {"smiles": "CS(=O)(=O)N[C@@H](Cc1ccccc1Cl)C(=O)Nc1ccc(C[C@H]2NC(=O)CC3(CCCC3)CC(=O)NCCCCCNC(=O)CNC2=O)cc1", "note": "[Compound 270]", "values": [{"measurement": "IC50", "setting": "[2]", "value": "1 to 10", "unit": "µM"}]}, {"smiles": "COC(=O)[C@@H]1CCCCNC(=O)CCCNC(=O)[C@@H](Cc2ccc(NC(=O)[C@H](Cc3ccccc3)NC(=O)Cc3ccc(C(F)(F)F)cc3)cc2)NC(=O)CC2(CCCC2)CC(=O)N1", "note": "[Compound 269]", "values": [{"measurement": "Kd", "setting": "IL17A", "value": "< 0.1", "unit": "µM"}]}, {"smiles": "O=C1CNC(=O)[C@@H](Cc2ccc(NC(=O)[C@H](Cc3ccccc3Cl)NC(=O)c3cnco3)cc2)NC(=O)CC2(CCCC2)CC(=O)NCCCCCN1", "note": "[Compound 197]", "values": [{"measurement": "Kd", "setting": "IL17A", "value": "0.1 to 1", "unit": "µM"}]}, {"smiles": "CN1CCC(CC(=O)N[C@@H](Cc2ccccc2Cl)C(=O)Nc2ccc(C[C@H]3NC(=O)CC4(CCCC4)CC(=O)NCCCCCNC(=O)CNC3=O)cc2)CC1", "note": "[Compound 276]", "values": [{"measurement": "IC50", "setting": "[2]", "value": "1 to 10", "unit": "µM"}]}, {"smiles": "COC(=O)[C@@H]1CCCCNC(=O)CCCNC(=O)[C@@H](Cc2ccc(NC(=O)[C@H](Cc3ccccc3)NC(=O)c3ccccc3)cc2)NC(=O)CC2(CCCC2)CC(=O)N1", "note": "[Compound 268]", "values": [{"measurement": "Kd", "setting": "IL17A", "value": "< 0.1", "unit": "µM"}]}, {"smiles": "O=C1CC2(CCCC2)CC(=O)N[C@H](Cc2ccc(NC(=O)[C@H](Cc3ccccc3)NC(=O)Cc3ccc(F)cc3)cc2)C(=O)NCCOCCOCCN1", "note": "[Compound 516]", "values": [{"measurement": "IC50", "setting": "[1]", "value": "> 10", "unit": "µM"}]}, {"smiles": "O=C1CC2(CCCC2)CC(=O)OCCOCCOCCNC(=O)[C@@H](Cc2ccc(NC(=O)[C@@H](NC(=O)C(F)(F)c3ccccc3)C3CCCCC3)cc2)N1", "note": "[Compound 612]", "values": [{"measurement": "IC50", "setting": "[1]", "value": "< 0.1", "unit": "µM"}]}, {"smiles": "COC(=O)[C@@H]1CCCCNC(=O)CCCNC(=O)[C@@H](Cc2ccc(NC(=O)[C@H](Cc3ccc(F)cc3)NC(=O)Cc3ccccc3)cc2)NC(=O)CC2(CCCC2)CC(=O)N1", "note": "[Compound 118]", "values": [{"measurement": "Kd", "setting": "IL17A", "value": "0.1 to 1", "unit": "µM"}]}, {"smiles": "Cc1ccccc1C[C@H](NC(=O)C(F)(F)c1ccccc1)C(=O)Nc1ccc(C[C@H]2NC(=O)CC3(CCCC3)CC(=O)N(C)CCCCCNC(=O)[C@@H](C)NC2=O)cc1", "note": "[Compound 511]", "values": [{"measurement": "IC50", "setting": "[1]", "value": "< 0.1", "unit": "µM"}]}, {"smiles": "O=C1CNC(=O)[C@@H](Cc2ccc(NC(=O)[C@H](Cc3ccccc3Cl)NC(=O)C3CC(F)(F)C3)cc2)NC(=O)CC2(CCCC2)CC(=O)NCCCCCN1", "note": "[Compound 196]", "values": [{"measurement": "Kd", "setting": "IL17A", "value": "< 0.1", "unit": "µM"}, {"measurement": "IC50", "setting": "[2]", "value": "< 0.1", "unit": "µM"}]}, {"smiles": "CCC[C@H](NC(=O)Cc1ccccc1)C(=O)Nc1ccc(C[C@H]2NC(=O)CC3(CCCC3)CC(=O)NCCCCCNC(=O)CNC2=O)cc1", "note": "[Compound 314]", "values": [{"measurement": "IC50", "setting": "[1]", "value": "< 0.1", "unit": "µM"}, {"measurement": "IC50", "setting": "[2]", "value": "0.1 to 1", "unit": "µM"}]}, {"smiles": "O=C1CC2(CCCC2)CC(=O)N[C@H](Cc2ccc(NC(=O)[C@H](Cc3ccccc3Cl)NC(=O)Cc3ccccc3)cc2)C(=O)NC/C=C/CCCCN1", "note": "[Compound 418]", "values": [{"measurement": "IC50", "setting": "[1]", "value": "< 0.1", "unit": "µM"}]}]}
